This is an account of results in PMC6919601, “Identification of Plasmodium dipeptidyl aminopeptidase allosteric inhibitors by high throughput screening” (PLoS ONE, 2019).

In all, about 110,000 compounds went through this assay and about 230 (0.21%) showed an effect of 50% or more. This is one part of the list.
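Note: 30 min substrate incubation versus DMSO and 10 µM JCP410 controls.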

DPAP1, sequence (Q8IIJ9 whole entry, looked up): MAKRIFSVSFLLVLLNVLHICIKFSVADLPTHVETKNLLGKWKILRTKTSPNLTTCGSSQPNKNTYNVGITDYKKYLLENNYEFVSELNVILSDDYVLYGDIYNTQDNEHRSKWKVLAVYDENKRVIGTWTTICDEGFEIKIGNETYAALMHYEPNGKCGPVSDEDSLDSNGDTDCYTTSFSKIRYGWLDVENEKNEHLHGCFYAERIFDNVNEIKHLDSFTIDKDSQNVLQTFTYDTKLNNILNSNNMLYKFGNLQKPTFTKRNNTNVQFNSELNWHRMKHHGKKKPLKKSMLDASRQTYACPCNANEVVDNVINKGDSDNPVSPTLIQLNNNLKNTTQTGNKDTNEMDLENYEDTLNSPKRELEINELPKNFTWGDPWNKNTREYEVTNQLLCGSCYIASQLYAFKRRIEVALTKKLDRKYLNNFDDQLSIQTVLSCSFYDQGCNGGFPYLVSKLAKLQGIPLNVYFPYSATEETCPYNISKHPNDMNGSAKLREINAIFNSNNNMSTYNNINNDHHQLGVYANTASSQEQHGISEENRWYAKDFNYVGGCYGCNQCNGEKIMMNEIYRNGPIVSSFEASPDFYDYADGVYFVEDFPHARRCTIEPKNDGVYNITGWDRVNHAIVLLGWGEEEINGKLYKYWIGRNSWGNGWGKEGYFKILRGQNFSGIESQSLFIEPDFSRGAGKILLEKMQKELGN

The experiment concerns the target DPAP1 (Plasmodium falciparum, UniProt Q8IIJ9). The experiment in a line: primary screen, percent inhibition; read by cleavage of a fluorogenic dipeptide substrate; higher = more effect of the substance. Set-up: species or system P. falciparum D10 trophozoite lysates; single well.
With `Cc1ccc(S(=O)(=O)Nc2ccc(-c3cn4ccsc4n3)cc2)cc1C`, the “% Inhibition @ 10 uM” value is recorded as -2.16%. The result for `CCCCOc1ccc(C(=O)NCCc2ccccc2)cc1` reads 3.37%. As for `O=C(N(CCN(C(=O)C(F)(F)F)c1ccccc1)c1ccccc1)C(F)(F)F`, the “% Inhibition @ 10 uM” value is reported as -2.74%. Turning to `CN(C)CCCNC(=O)/C(=C/c1ccc(F)cc1)NC(=O)c1ccccc1`, the “% Inhibition @ 10 uM” value is recorded as 2.41%.

For `N#CCNC(=O)[C@H](Cn1cncn1)NC(=O)OCc1ccccc1`, the “% Inhibition @ 10 uM” value was -1.82%.

For the compound `COc1ccc(S(=O)(=O)NC(C)c2ccccc2)cc1OC` (centres unmarked), the “% Inhibition @ 10 uM” value is 5.1%. Turning to `CCN(CC)C(=O)C1CCCN(Cc2sccc2C)C1` (centres unmarked), the “% Inhibition @ 10 uM” value was -2.7%. For `Cc1cc(-n2nc(C)cc2C)nc(-n2nc(C)cc2C)n1` the value was -3.77%; for `O=C(Cc1ccc(F)cc1F)Nc1ccc(F)cc1F`, -0.833%. For `COc1ccc(OC)c(/C=C2\N=C(c3ccccc3Cl)OC2=O)c1`, the “% Inhibition @ 10 uM” value is recorded as -7.01%. For the compound `O=C(CSc1nc2c(c(C(F)(F)F)n1)CCc1ccccc1-2)NCCCN1CCOCC1`, the “% Inhibition @ 10 uM” value is listed as 3.35%. `CCCn1c(CNc2ccccc2O)nc2ccccc21`: the “% Inhibition @ 10 uM” value is on record as 4.61%.

Take `O=c1c2ccccc2ncn1-c1cc(C(F)(F)F)cc(C(F)(F)F)c1`: the “% Inhibition @ 10 uM” value is on record as -1.96%. The result for `O=C1NC(c2ccccc2)C(C(=O)c2ccc(Br)cc2)C(O)(C(F)(F)F)N1` (centres unmarked) reads 4.59%; that for `CC1CCN(S(=O)(=O)c2ccc3c(ccn3CC(=O)NCCc3ccccc3Cl)c2)CC1`, -0.177%; that for `O=C1OC(/C=C/c2ccc(Cl)cc2)=NC/1=C/c1cccs1`, -0.423%. Regarding `N#CC1=C(N)OC2=C(C(=O)CCC2)C1c1ccc(Oc2ccc([N+](=O)[O-])cc2Cl)cc1` (centres unmarked), the “% Inhibition @ 10 uM” value is reported as -2.63%. As for `Cn1nc(-c2ccccc2F)c2cc(C(=O)N3CCC4(CC3)OCCO4)sc21`, the “% Inhibition @ 10 uM” value is on record as -5.1%. The result for `CC1=C(C(=O)Nc2ccccc2C)C(c2ccc(Cl)cc2)NC(=O)N1` (centres unmarked) reads -2.2%; that for `COc1ccc(CCNC(=O)CSc2nnc(CNC(=O)c3ccccc3F)o2)cc1OC`, -1.58%. For `COc1ccccc1Cn1c(SCC(N)=O)nc2c(oc3ccccc32)c1=O` the value was -6.07%. For `Cc1nc2c(c(C)nn2-c2ccccc2)c(C)c1CCC(=O)N1CCC(N2CCCCC2)CC1` the value was -0.465%.

Take `Cc1cccnc1CN1CCN(Cc2ncccc2C)CC1`: the “% Inhibition @ 10 uM” value worked out at 3.57%. Consider `O=C(Nc1nsc(-c2ccccc2)n1)c1ccccc1`, for which the “% Inhibition @ 10 uM” value is -5.3%. The result for `CCc1ccc2ncc(S(=O)(=O)c3ccc(OC)cc3)c(N3CCN(CC)CC3)c2c1` reads -5.54%; that for `CCOC(=O)c1cc(S(=O)(=O)NCc2ccccc2Cl)cn1C`, -2.84%. Consider `O=C(Nc1ccc(S(=O)(=O)Nc2ccc(F)cc2)cc1)C(F)(F)F`, for which the “% Inhibition @ 10 uM” value is 0.746%. The result for `Cc1c(C(=O)NC2CCCCC2)sc2nc(-c3ccc(F)cc3)cn12` reads -5.82%; that for `COC(=O)C1=C(C)NC(=O)CC1c1c(Cl)cccc1Cl` (centres unmarked), 3.05%; that for `Oc1ccc2ccccc2c1CN1CCN(c2ccccc2F)CC1`, 0.273%. For the compound `CC(=O)c1ccc(OCC(O)CN2CCc3ccccc3C2)cc1` (centres unmarked), the “% Inhibition @ 10 uM” value came out at 0.343%. In the case of `CSc1ccc(CCNC(=O)c2ccc(CS(=O)c3ccccc3Cl)o2)cc1` (centres unmarked), the “% Inhibition @ 10 uM” value is recorded as -4.82%. For `Cc1nc(NCC2CCCO2)c2c(C)c(C)sc2n1` (centres unmarked) the value was -0.519%; for `Fc1ccc(CN2CCN(c3ccccn3)CC2)cc1`, 1.38%. On to `C#CCSc1nc2ccccc2c(=O)n1CC=C`, for which the “% Inhibition @ 10 uM” value is on record as -0.28%.

As to `O=C(c1ccc(Cl)cc1Cl)N1CCN(c2cccc(Cl)c2)CC1`, the “% Inhibition @ 10 uM” value worked out at 1.54%.

For the compound `c1ccc(-c2csc(Nc3cccnc3)n2)cc1`, the “% Inhibition @ 10 uM” value is -1.69%. For `CC1CCN(S(=O)(=O)c2cccc3c2C(=O)c2ccccc2C3=O)CC1` the value was 1.72%; for `Cc1cc(C)c(C)c(C=C2C(=O)c3ccccc3C2=O)c1C`, -7.99%; for `CCCn1c(NCc2ccc(OC)cc2OC)nc2ccccc21`, -2.91%.

With `O=[N+]([O-])c1ccc(CN2CCC(Cc3ccccc3)CC2)s1`, the “% Inhibition @ 10 uM” value amounted to 1.4%. The result for `COc1cc(C(=O)NCc2cn3cccc(C)c3n2)cc(OC)c1OC` reads 3.3%. With `CC1=C(C(=O)N(C)Cc2ccccc2)C2(CCC(C)CC2)OC1=O` (centres unmarked), the “% Inhibition @ 10 uM” value is reported as -5.58%. The result for `CCOc1ccccc1C(=O)Nc1cc(Cl)ccc1OC` reads 1.47%; that for `Cc1ccc(OCCSc2nc(C)cc(O)n2)cc1`, 1.62%; that for `O=C(Nc1cccc2c(NC(=O)c3cccs3)cccc12)c1cccs1`, 0.907%.

For `c1ccc(CSc2n[nH]c(-c3ccccc3)n2)cc1`, the “% Inhibition @ 10 uM” value is reported as 4.85%. For `O=C1C2CCCCC2C(=O)N1Cc1ccccc1` (centres unmarked) the value was -1.96%; for `CC(Oc1ccccc1)C(=O)NCCc1ccc(Cl)cc1` (centres unmarked), -8.42%. For `COc1ccccc1CNCc1c(C(=O)O)n(Cc2ccc(F)cc2Cl)c2ccccc12` the value was 0.277%; for `Cc1cccc(C)c1OCCCCCc1c(C)n[nH]c1C`, 3.47%; for `O=C(Nc1ccc2ccccc2c1)Nc1ccccc1SC(F)(F)F`, 1.8%. As for `CN(CCNC(=O)C1c2ccccc2C(=O)N(C)C1c1cccs1)C1CCCCC1` (centres unmarked), the “% Inhibition @ 10 uM” value is on record as -5.11%.

As to `Cc1ccc2c(c1)cc1c(=O)n(CC(=O)NCCC(C)C)nc(C)n12`, the “% Inhibition @ 10 uM” value is recorded as -5.55%. The result for `Cc1ccc(S(=O)(=O)N(CC(=O)O)Cc2ccccc2F)cc1` reads 2.57%; that for `Cc1ccc(-n2nc3c(c2NC(=O)CCc2ccccc2)CS(=O)(=O)C3)cc1`, 7.78%; that for `COc1cccc(/C=C2\NC(=O)N(Cc3ccccc3F)C2=O)c1O`, -0.0626%. The result for `N#Cc1c(C(F)(F)F)cc(-c2ccccc2)nc1SCC(=O)Nc1nccs1` reads -11.4%. The result for `O=C1c2ccccc2C(=O)N1CCCc1nc(-c2cccs2)no1` reads 0.9%; that for `CC(CNC(=O)Cn1ncc2ccsc2c1=O)c1ccccc1` (centres unmarked), -8.42%; that for `c1ccc(COc2ccc3c(c2)c2c4n3CCNC4CCC2)cc1` (centres unmarked), -1.96%.

With `Cc1nnc(N2CCCC(C(=O)NCCCc3ccccc3)C2)c2nn(-c3ccccc3)c(C)c12` (centres unmarked), the “% Inhibition @ 10 uM” value is 2.08%.

Consider `CCC(=O)N(Cc1ccccc1)c1nc(C)cc(COC)c1C#N`, for which the “% Inhibition @ 10 uM” value was 4.58%.

With `Cc1ccc(C)c(-c2ccc(=O)n(Cc3cc(=O)n4ccccc4n3)n2)c1`, the “% Inhibition @ 10 uM” value worked out at 5.54%. For `CCN(CC)CCNc1nc2c(=O)[nH]c(=O)n(C)c2[nH]1` the value was 1.96%; for `CCCCNC(=O)CCc1nc(-c2ccc(C(C)(C)C)cc2)no1`, -3.12%; for `Cc1cc(-c2ccc(S(=O)(=O)N(C)Cc3ccccc3)s2)on1`, 3.08%. `O=C(Nc1sc2c(c1C(=O)NCc1ccco1)CCC2)c1cc(=O)c2cc(Cl)ccc2o1`: the “% Inhibition @ 10 uM” value is 0.248%.

Turning to `COc1ccc(C2=N/C(=C\C=C\c3ccccc3OC)C(=O)O2)c(Cl)c1`, the “% Inhibition @ 10 uM” value is 6.86%. The result for `Cc1cc(C)n(C(C)CC(=O)NCc2ccc3c(c2)OCO3)n1` (centres unmarked) reads -5.52%; that for `COc1ccc(C(=O)NCC2COc3ccccc3O2)cc1OC` (centres unmarked), 3.32%; that for `Cc1nc2cc(-c3ccccc3)nn2c(C)c1CC(=O)NCC1CCCO1` (centres unmarked), -2.45%.

Regarding `Cc1ccc(OCC(=O)Nc2ccc(C(N)=O)cc2)cc1`, the “% Inhibition @ 10 uM” value is given as -1.74%.

Regarding `COc1ccc(CNC(=O)C(C)n2ccc3cc(S(=O)(=O)N4CCCC4)ccc32)cc1` (centres unmarked), the “% Inhibition @ 10 uM” value is recorded as 0.931%. The result for `CCOc1ccc(N(CC(=O)Nc2cc(C(F)(F)F)ccc2Cl)S(C)(=O)=O)cc1` reads -3.77%; that for `CCOc1cc(/C=C2/C(=N)N3OC(C)=CC3=NC2=O)ccc1OCc1cccc(C)c1`, -7.05%; that for `Cc1csc2nc(CNC(=O)COc3ccccc3)cn12`, -0.72%. `Cc1nc(SCC(=O)Nc2cccc(C(F)(F)F)c2)c(C#N)c(C)c1C`: the “% Inhibition @ 10 uM” value is -0.305%.

Regarding `O=C(CSc1nc2ccccc2o1)NC1CCCCC1`, the “% Inhibition @ 10 uM” value is 4.03%.

Consider `Cc1cc2nc(SCc3ccccc3)[nH]c2cc1C`, for which the “% Inhibition @ 10 uM” value came to 23.8%. The result for `Cc1cc(C)c(S(=O)(=O)N2CCN(c3ccccc3F)CC2)c(C)c1` reads 3.86%; that for `COc1cc(OC)cc(C(=O)NCc2ccc(S(N)(=O)=O)cc2)c1`, -4.94%.

Take `COc1cccc(C(=O)N2CCC(C(=O)N3CCOCC3)CC2)c1`: the “% Inhibition @ 10 uM” value came out at 1.52%. For `O=C(COC(=O)C1CC1)c1c[nH]c2ccccc12` the value was 1.66%; for `CC(=O)c1ccc(NC(=O)c2ccc3ccccc3c2)cc1`, -5.1%; for `O=S(=O)(Cc1ccc(Cl)cc1)c1nc2ccccc2[nH]1`, -5.92%.

As to `COCCCN1C(=O)/C(=C\c2ccc(C(=O)OC)cc2)C(C(=O)OC)=C1C`, the “% Inhibition @ 10 uM” value worked out at 1.7%. As for `CCOC(=O)C1CCCCN1Cc1ccc(OC)c(C)c1OC` (centres unmarked), the “% Inhibition @ 10 uM” value is listed as -1.92%. Turning to `Cc1cccn2c(=O)c(/C=C(\C#N)C(=O)N3CCCCC3)c(Oc3ccc(Br)cc3)nc12`, the “% Inhibition @ 10 uM” value was determined as 3.63%.

Consider `CC1CCN(C(=O)CCc2nc(CN3CCN(C(=O)/C=C/c4ccco4)CC3)no2)CC1`, for which the “% Inhibition @ 10 uM” value is 0.889%.

For `O=C(NCc1ccccc1)c1cccc(S(=O)(=O)Nc2ccc(Br)cc2)c1`, the “% Inhibition @ 10 uM” value came to 6.31%. Consider `CCN(CC)CCOC(=O)NS(=O)(=O)c1ccccc1Cl`, for which the “% Inhibition @ 10 uM” value was -0.999%. For `N#Cc1nc(/C=C/c2cccs2)oc1NCc1ccc2c(c1)OCO2` the value was 1.67%. In the case of `CCOc1ccccc1CNS(=O)(=O)c1ccc(-c2cc(C(F)(F)F)no2)s1`, the “% Inhibition @ 10 uM” value is on record as -1.95%.

Regarding `COc1ccc(C(=O)Nc2ccc(S(=O)(=O)N3CCCC3)cc2)cc1Br`, the “% Inhibition @ 10 uM” value was determined as 4.57%. The result for `Cc1ccc(-n2c(S)nnc2-c2cccnc2)cc1Cl` reads -3.21%; that for `OCCN1C2=NCCCN2c2ccccc21`, -3.35%; that for `Cc1ccc2c(c1)-c1c(cnn1CC(=O)NCc1cccnc1)CO2`, -5.03%. For `CCOC(=O)NCc1cc(-c2nn(C)c(=O)c3ccccc23)ccc1C` the value was 5.44%; for `CCN(CC)CCN(C(=O)c1ccc(C(C)=O)cc1)c1nc2ccc(Cl)cc2s1`, -2.95%; for `Cc1c(C2=CCN(S(=O)(=O)Cc3ccccc3)CC2)c2ccccc2n1CC(=O)N1CCCC1`, 3.96%.
